Over roughly 110,000 compounds, “z-score” has its median near -0.1; the highest 2% begin near 2. The list shows a part of the results. Calls of active or inactive are those of the source.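 Rule for the calls: active = z-score in the third read window above 3 or below -3; inactive = the rest.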

This test has as its target Metabotropic glutamate receptor 8 (Rattus norvegicus) (UniProt P70579). Briefly: rat mGluR8 modulators via GIRK flux, primary screen, cell-based, thallium flux, HTS (AID 488969). The settings on record: HEK293 rat mGluR8, GIRK (G protein-gated inwardly rectifying potassium channel) thallium flux, FluoZin2; at 10 µM; stronger effect = higher value; submaximal glutamate (EC20) added with thallium.
Sequence of UniProt P70579 (P70579 whole entry, looked up): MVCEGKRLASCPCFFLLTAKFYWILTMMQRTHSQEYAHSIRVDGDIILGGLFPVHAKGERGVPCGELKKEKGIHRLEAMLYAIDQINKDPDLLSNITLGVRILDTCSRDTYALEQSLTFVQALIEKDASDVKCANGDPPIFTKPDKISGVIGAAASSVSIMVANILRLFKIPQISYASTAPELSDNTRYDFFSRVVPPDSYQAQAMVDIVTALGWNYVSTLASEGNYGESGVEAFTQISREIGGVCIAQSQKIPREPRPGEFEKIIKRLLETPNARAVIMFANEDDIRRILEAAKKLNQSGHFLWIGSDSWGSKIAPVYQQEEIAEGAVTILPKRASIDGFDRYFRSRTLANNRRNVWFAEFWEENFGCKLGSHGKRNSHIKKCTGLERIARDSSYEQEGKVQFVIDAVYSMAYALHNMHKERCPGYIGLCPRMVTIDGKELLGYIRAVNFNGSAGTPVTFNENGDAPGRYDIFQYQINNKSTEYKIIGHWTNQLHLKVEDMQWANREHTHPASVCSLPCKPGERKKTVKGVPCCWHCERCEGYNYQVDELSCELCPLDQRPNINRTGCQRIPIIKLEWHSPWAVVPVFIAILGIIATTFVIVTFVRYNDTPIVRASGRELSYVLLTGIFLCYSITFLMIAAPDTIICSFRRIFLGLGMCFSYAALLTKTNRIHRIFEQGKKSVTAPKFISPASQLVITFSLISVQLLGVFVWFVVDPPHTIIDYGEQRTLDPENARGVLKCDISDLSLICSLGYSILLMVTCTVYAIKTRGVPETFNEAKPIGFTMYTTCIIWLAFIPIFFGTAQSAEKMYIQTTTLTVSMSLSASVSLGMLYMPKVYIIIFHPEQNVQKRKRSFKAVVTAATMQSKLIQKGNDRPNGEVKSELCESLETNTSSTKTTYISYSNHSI
Consider `CCc1ccc(CCC(=O)Nc2sc(C)c(C)c2C(=O)OC)o1`, for which the z-score is 0.226.
The compound `CN(C)S(=O)(=O)N1CCN(C(=O)c2cccs2)CC1` registered a z-score of 0.0197.
With `CCOc1ccc(S(=O)(=O)Nc2ccccc2C(=O)NCC2CCCO2)cc1` (configuration not stated) the figure was -0.197.
In the case of `Cc1cccc(NC(=O)c2sc3nc4c(c(-c5ccco5)c3c2N)CCC4)c1`, the z-score is 0.0269.
For `COc1ccc(C(=O)N2c3cc4c(cc3C(C)=CC2(C)C)OCO4)cc1`, the z-score was 0.251.
The compound `CC1=[N+](C)N(c2ccccc2)C(=O)C1N=Cc1c(Cl)cccc1Cl` (configuration not stated) registered a z-score of 0.135.
For `CCCCc1c(O)nc2n(c1=O)CCS2`, the z-score was -0.493.
With `Cc1ccc(C(=O)Nc2c(-c3cccs3)nc3cc(C)ccn23)cc1` the figure was -0.519.
On to `COc1ccc(CN2C(=O)CC(Cc3ccc(C)cc3)C2=O)cc1OC` (configuration not stated), for which the z-score turned out to be 0.404.
Compound `COC(=O)c1sccc1NC(=O)c1cc(-c2ccc(C)cc2C)nc2ccccc12` yielded a z-score of -0.164.
`Cn1nc(OCC(N)=O)ccc1=O` came in with a z-score of 0.11.
In the case of `COCC(C)NCc1cccc([N+](=O)[O-])c1` (configuration not stated), the z-score is -0.122.
In turn, `CCOC(=O)c1nn(-c2ccc(Br)cc2)cc1C(=O)c1cccc2ccccc12` came in with a z-score of 0.0669.
Turning to `CCN(CCO)Cc1csc2ccc(C(C)(C)C)cc12`, the z-score was determined as 0.147.
In the case of `CCCN1C(=O)/C(=C/c2cc(C)n(C)c2C)SC1=Nc1ccc(OC)cc1`, the z-score is -0.188.
Compound `COc1ccccc1N1CCN(/N=C\c2ccc(C)o2)CC1` came in with a z-score of 0.0843.
`CCNC(=S)NNC(=O)c1cc(CC(C)C)nc2ccccc12` yielded a z-score of -0.186.
`O=C(NNc1ccccc1Br)C(=O)n1ccc2ccccc21`: the z-score was 2.23.
With `CCn1c(-c2c[nH]c3ccccc23)n[nH]c1=S` the figure was -0.0356; with `Cc1ccc2cc(CN(CC3CCCO3)C(=O)C(C)C)c(=O)[nH]c2c1` (configuration not stated), -0.391; with `CC12COC3(C(N)=O)CC1CCC32C` (configuration not stated), -0.0772.
On to `O=C(CCCn1c(=S)[nH]c2ccccc2c1=O)N1CCCCC1`, for which the z-score is 1.44.
With `C=C(C)Cn1c(=S)[nH]c2ccccc2c1=O` the figure was -0.0946; with `Cn1c(NCc2ccco2)nc2ccccc21`, 0.035; with `Cc1ccc(S(=O)(=O)N2CCN(c3nc(C)nc4sc(C)c(C)c34)CC2)cc1`, -0.309.
Regarding `CCOC(=O)c1c(NC(=S)Nc2ccccc2)sc2c1CCN(C)C2`, the z-score is -0.385.
As to `O=C(Cn1c(COc2ccccc2)nc2ccccc21)Nc1cccc(Cl)c1`, the z-score is -0.15.
In the case of `C=CCOC(=O)C1=C(C)Nc2nnnn2C1c1ccc(OC)cc1OC` (configuration not stated), the z-score was 0.184.
In the case of `CCCOC(=O)c1c(NC(=O)/C=C/c2cnn(C)c2C)sc(C(=O)OC)c1C`, the z-score is -0.156.
With `Cc1cc(C)n2nc(SCC(=O)N/N=C/c3ccc(F)cc3)nc2n1` the figure was -0.137; with `CC1=C(C(=O)OC2CCCCCCC2)C(c2cc3c(cc2Br)OCO3)CC(=O)N1` (configuration not stated), -0.174; with `COc1ccc(C)cc1NC(=O)Cn1cnc2sc(C)c(S(=O)(=O)N3CCOCC3)c2c1=O`, 0.412.
Consider `CCOc1ccc(CSCCNC(=S)Nc2ccccc2)cc1`, for which the z-score was 0.112.
With `CCc1cccc(OCCCCNCCOC)c1` the figure was 0.165; with `CC(=O)Nc1ccc(NC(=O)CN2CCN(c3cccc(C(F)(F)F)c3)CC2)cc1`, -0.345; with `COc1ccc(CC(=O)OCC(=O)Nc2ccc(Cl)cn2)cc1`, -0.453.
With `Cc1cc(C)nc(N2CCCC(C(=O)Nc3nnc(C)s3)C2)n1` (configuration not stated) the figure was 0.518; with `Cc1cc(NCCCN2CCOCC2)n2nc(C)c(-c3ccc(F)cc3)c2n1`, 0.303.
`N#CCCn1cc(/C=N/O)c(-c2ccc(Cl)cc2)n1` came in with a z-score of 0.457.
With `COc1cc(/C=N/NC(=O)CCc2c(C)n[nH]c2C)cc(OC)c1OC` the figure was -0.524; with `O=C(O)CSCc1ccc(Cl)cc1`, -0.193; with `Cc1ccc(NCc2nnc(SCC(N)=O)n2CC2CCCO2)c(C)c1` (configuration not stated), -0.972.
`Cc1ccc(-c2nc(CS(=O)CC(=O)NCCN(CC(C)C)CC(C)C)c(C)o2)cc1` (configuration not stated) returned a z-score of 1.56.
Consider `COc1cccc(-n2c(SCc3cc(=O)oc4cc(O)c(O)cc34)nc3ccccc3c2=O)c1`, for which the z-score is -1.01.
Compound `CC(C)[C@H](NC(=O)NCc1ccc(Cl)cc1)C(=O)O` returned a z-score of -0.146.
Compound `C=CCn1c(=NC(=O)c2ccccc2[N+](=O)[O-])sc2cc(S(C)(=O)=O)ccc21` had a z-score of -0.065.
`Cc1c(NC(=O)CSc2nnnn2C)c(=O)n(-c2ccccc2)n1C`: the z-score was -0.861.
With `CC(C)C(=O)Nc1cccc(C(=O)NCCc2ccc(S(N)(=O)=O)cc2)c1`, the z-score was 0.316.
`CCCCCC(=O)NNC(=O)c1ccc(-c2ccccc2)cc1` had a z-score of -0.355.
The compound `Nn1c(Cc2ccccc2F)nnc1SCC(=O)N1CC(=O)Nc2ccccc21` displayed a z-score of -0.206.
With `Clc1ccc(/C=N/NC(=Nc2ccccc2)c2ccccn2)c(Cl)c1` the figure was -0.165; with `CCCCN(C(=O)CSc1nnc(-c2ccccc2)n1C)c1c(N)n(Cc2ccccc2)c(=O)[nH]c1=O`, -0.219.
In turn, `CCOC(=O)Cn1nnnc1CN(Cc1cccs1)Cc1cc2cc(C)cc(C)c2[nH]c1=O` came in with a z-score of -0.864.
Compound `COC(=O)c1sc2ccccc2c1NC(=O)c1coc2ccccc2c1=O` registered a z-score of 0.603.
Compound `S=C(NCc1ccco1)Nc1ccc(N2CCOCC2)cc1` registered a z-score of -0.00184.
As for `CC(=O)Nc1nnc(CCN2CCCCC2)s1`, the z-score was -0.424.
`CC(=O)c1ccc(OC(C)C)c(CSc2nc(O)cc(=O)[nH]2)c1` came in with a z-score of -0.0512.
With `CCc1ccc(Cn2nnc(C(=O)NCc3ccccc3OC)c2N)cc1` the figure was 0.172; with `CC(=O)Nc1ccc(Nc2ccc(S(=O)(=O)C(F)(F)F)cc2[N+](=O)[O-])cc1`, 0.249.
`CCOc1cc(C)c(Cl)cc1S(=O)(=O)N(CC)CC` came in with a z-score of 0.127.
`CN(Cc1ccccc1)C(=O)CN1C(=O)C2C3C=CC(C3)C2C1=O` (configuration not stated) gave a z-score of 0.193.
`CC(C)(C)c1cc(CN2CCC(O)CC2)cc(C(C)(C)C)c1O` showed a z-score of 0.942.
Consider `CCOc1ccc(OCCn2ccnc2)cc1`, for which the z-score is -0.316.
As to `COc1cccc(CNC(=O)C2CCCN(c3nc4ccccc4o3)C2)c1` (configuration not stated), the z-score was -0.0116.
As for `Cc1cccnc1NC(=O)CCCN1C(=O)c2ccccc2C1=O`, the z-score is -0.144.
In turn, `Cc1ccc(C(=O)NCCSc2ccc(Cl)cc2)cc1S(=O)(=O)Nc1ccccc1` showed a z-score of -0.43.
As to `O=C(OCc1ccccc1Cl)c1ccc(-n2cnnc2)cc1`, the z-score was 0.0628.
`COc1ccc(C2CC(c3ccccc3)=NN2C(=O)COC(=O)c2cc(S(=O)(=O)N3CCOCC3)ccc2Cl)cc1` (configuration not stated) returned a z-score of 0.254.
In turn, `CCOc1ccccc1OCCOCCN1CC(C)OC(C)C1` (configuration not stated) had a z-score of 0.466.
For `CCN(Cc1nc2ccccc2c(=O)[nH]1)Cc1cc(=O)oc2cc(OC)ccc12`, the z-score is -0.0732.
Take `Cc1ccc2occ(CN3CCN(Cc4ccccc4)CC3)c(=O)c2c1`: the z-score stood at 0.207.
In turn, `O=C1CN=C(Nc2ccc(Cl)cc2)N1c1ccccc1` displayed a z-score of -0.0445.
Regarding `CC12CCC(C(=O)Nc3ccccc3)(C/C1=N\O)C2(C)C` (configuration not stated), the z-score is -0.345.
With `Cc1ccc(C(=O)C(OC(=O)CCC(=O)Nc2cccc(C)c2)c2ccccc2)cc1` (configuration not stated) the figure was -0.312.
In the case of `O=C(NNC(=O)C1[C@H]2CCCC[C@@H]12)NC1CCCCC1` (some centres not stated), the z-score was -0.0928.
With `COC(=O)C(C(=O)Nc1cccc(C)n1)C1CCCCCC1` (configuration not stated) the figure was 1.35.
Compound `COc1cc(NC(=S)NC(=O)c2ccccc2F)ccc1NC(=O)c1ccco1` showed a z-score of 0.553.
Compound `O=C(Nc1nccs1)c1cc(S(=O)(=O)N2CCOCC2)c(Cl)cc1Cl` registered a z-score of 0.596.
`CCOc1ccc(NC(C(=O)Nc2cccc(C(C)=O)c2)c2ccccc2)cc1` (configuration not stated) yielded a z-score of 0.423.
Compound `CCOc1cccc(C(=O)Nc2ccccc2N2CCN(C(=O)C(C)C)CC2)c1` returned a z-score of -0.29.
`Cc1cc(=O)oc(C)c1C(=O)N1CCN(C)CC1`: the z-score is 0.384.
Turning to `CCN1C(=O)/C(=C/c2cnn(C)c2C)SC1=S`, the z-score is -0.194.
For `CC1=C(C(=O)NC2CCC(C)CC2)C2(CCC(C)CC2)OC1=O` (configuration not stated), the z-score is -0.759.
As to `O=C(Nc1ccc(F)cc1)C1C(c2ccccc2)C1(Cl)Cl` (configuration not stated), the z-score was found to be 0.315.
With `CC(C)CC(=O)CN1C(=O)C2(OCCO2)c2ccccc21` the figure was active: 6.5; with `Cc1ccc(NC(=S)N(CCCN2CCOCC2)Cc2ccccn2)cc1Cl`, -0.928; with `CCOC(=O)c1c(CN2CCCCC2C)oc2ccc(OC)cc12` (configuration not stated), -1.99.
With `COc1ccc(NC(=O)Nc2ccc(N(C)C)cc2)cc1` the figure was -0.0792; with `COc1ccccc1OCCOc1ccc(C(=O)c2ccccc2)cc1`, 1.04; with `O=S(=O)(N1CCCCCC1)N1CCN(S(=O)(=O)N2CCOCC2)CC1`, 0.109.
`CN1CCN(c2ccc(S(=O)(=O)N3CCCCC3)cc2NC(=O)Cc2ccccc2F)CC1` yielded a z-score of -0.245.
With `O=C(Nc1ccc2nc3n(c(=O)c2c1)CCCC3)c1ccccc1[N+](=O)[O-]` the figure was -0.424; with `O=C(CCc1nc2cccnc2n1Cc1ccccc1)NCCc1ccc(Cl)cc1`, -0.975.
With `O=C(CSc1nnc(-c2cccc(Cl)c2)o1)Nc1ccc2c(c1)OCCO2` the figure was -0.0175.
In turn, `Cc1nc(=O)c(-c2ccccc2)c(C)n1-c1cccc(C(=O)O)c1` returned a z-score of 1.11.
Consider `O=C(O)CC(Cn1[nH]nnc1=S)c1ccccc1` (configuration not stated), for which the z-score was -0.0932.
For the compound `COc1ccc(CC(=O)Nc2ccc3nc(C)sc3c2)cc1OC`, the z-score worked out at 0.0989.
The compound `COc1cc2nc(SCc3ccc(C(F)(F)F)cc3)n(Cc3cccs3)c(=N)c2cc1OC` gave a z-score of 0.0241.
With `CC(=O)Nc1ccc(Cl)cc1C(=O)O` the figure was -2.27; with `O=[N+]([O-])c1ccc(N2CCCCCC2)c(S(=O)(=O)N2CCCCC2)c1`, 0.0841.
As for `COC(=O)c1cc(COc2ccc3ccc(=O)oc3c2)c(C)o1`, the z-score worked out at 0.2.
With `CCOC(=O)NC(Nc1ccc(S(N)(=O)=O)cc1)(C(=O)OCC)C(F)(F)F` (configuration not stated) the figure was 0.00287.
In turn, `CCCCSC(=S)NC1CCS(=O)(=O)C1` (configuration not stated) gave a z-score of -0.0934.
Compound `Cc1ccc(-c2nnc(CSc3nncn3N)o2)cc1` yielded a z-score of -0.286.
With `O=C1c2ccccc2NC(c2ccccc2Cl)N1N=C1CCCCCC1` (configuration not stated) the figure was -0.177; with `COC(=O)C1C2C=CC3(CN(C4CCCC4)C(=O)C13)O2` (configuration not stated), -1.65.
With `COc1ccc(-c2ccc(/C=C3/C(=N)N4C=CSC4=NC3=O)o2)c([N+](=O)[O-])c1` the figure was 0.455.
The compound `CCOc1ccc(NC(=O)Cn2cncc2-c2ccc([N+](=O)[O-])cc2)cc1` gave a z-score of -0.224.
Turning to `c1ccc(CNc2ncnc3sc4c(c23)CCC4)nc1`, the z-score was -0.648.
In the case of `COc1cc(/C=C2/C(=N)N3C=CSC3=NC2=O)ccc1OCCCOc1ccccc1C`, the z-score was 0.0419.
Turning to `CCn1c(SCC(=O)OC)nc2sc3c(c2c1=O)CCC3`, the z-score was -0.399.
With `CCn1ncc(CNC(=O)CCCSc2nc(-c3ccco3)cc(C(F)(F)F)n2)c1C` the figure was -1.05.

(Values after PubChem BioAssay AID488969 (Vanderbilt High Throughput Screening Facility, 2010).)
